Assay results as given in the supplement of paper PMC11369174, “Proteome-scale characterisation of motif-based interactome rewiring by disease mutations” (Molecular Systems Biology, 2024).
This is one part of the list. Single values of this set are uncertain.

Legend:
Experiment in all cases: mutation enrichment score (mutant vs wild-type peptide binding to bait); baits are purified protein domains named by gene / domain / UniProt id / residues; peptides come from disordered regions of human proteins; higher = mutation enhances binding relative to wild type
[1] = target: T1, DOK1_PTB__Q99704_151_256; conditions: number of wild-type / mutant comparisons summed (bounds the score): 5; paper call: no_effect; wild-type window: …
T1 chain: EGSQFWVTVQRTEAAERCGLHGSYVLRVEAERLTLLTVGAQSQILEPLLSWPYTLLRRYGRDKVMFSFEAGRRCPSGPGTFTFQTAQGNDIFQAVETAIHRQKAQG

[2] = target: USP7_MATH-TRAF__Q93009_53_206; conditions: paper call: no_effect, wild-type window: …
Sequence of USP7_MATH-TRAF__Q93009_53_206 (chain, as listed by the source): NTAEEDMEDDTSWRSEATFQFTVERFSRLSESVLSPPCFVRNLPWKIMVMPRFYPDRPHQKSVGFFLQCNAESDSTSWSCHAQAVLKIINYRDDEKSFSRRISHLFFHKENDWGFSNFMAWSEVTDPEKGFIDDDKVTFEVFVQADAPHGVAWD

[3] = target: DMD_WW-EF__P11532_3055_3088; conditions: number of wild-type / mutant comparisons summed (bounds the score): 12, wild-type window: …
[4] = target: T2, GRAP2_SH3_2_O75791_274_329; conditions: number of wild-type / mutant comparisons summed (bounds the score): 18; paper call: no_effect; wild-type window: …
T2 chain: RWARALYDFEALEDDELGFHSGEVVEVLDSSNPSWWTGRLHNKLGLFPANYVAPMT

[5] = target: Intersectin-1_SH3_2_Q15811_913_971; conditions: number of wild-type / mutant comparisons summed (bounds the score): 12; paper call: no_effect; wild-type window: …
[6] = target: NEDD4_WW_2_P46934_765_803; conditions: wild-type window: …
Sequence of NEDD4_WW_2_P46934_765_803 (chain, as listed by the source): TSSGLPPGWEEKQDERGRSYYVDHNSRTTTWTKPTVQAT

[7] = target: SMURF2_WW_3_Q9HAU4_298_330; conditions: number of wild-type / mutant comparisons summed (bounds the score): 12, wild-type window: …
[8] = target: WWTR1_WW__Q9GZV5_122_160; conditions: number of wild-type / mutant comparisons summed (bounds the score): 12, wild-type window: …
Sequence of WWTR1_WW__Q9GZV5_122_160 (chain, as listed by the source): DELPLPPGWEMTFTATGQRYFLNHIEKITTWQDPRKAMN

[9] = target: T3, EIF3B_RRM__P55884_172_274; conditions: paper call: no_effect, wild-type window: …
T3 chain: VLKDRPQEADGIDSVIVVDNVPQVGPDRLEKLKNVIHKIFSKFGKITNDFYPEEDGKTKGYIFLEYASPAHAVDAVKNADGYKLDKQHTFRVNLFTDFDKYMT

[10] = target: MAP1LC3A_ATG8__Q9H492_2_121; conditions: number of wild-type / mutant comparisons summed (bounds the score): 6; paper call: no_effect; wild-type window: …
[11] = target: MAP1LC3B_ATG8__Q9GZQ8_2_119; conditions: number of wild-type / mutant comparisons summed (bounds the score): 6; paper call: no_effect; wild-type window: …
[12] = target: EIF4E_eIF4E__P06730_1_217, P06730; conditions: number of wild-type / mutant comparisons summed (bounds the score): 6; paper call: no_effect; wild-type window: …
Sequence of EIF4E_eIF4E__P06730_1_217, P06730 (P06730 whole entry): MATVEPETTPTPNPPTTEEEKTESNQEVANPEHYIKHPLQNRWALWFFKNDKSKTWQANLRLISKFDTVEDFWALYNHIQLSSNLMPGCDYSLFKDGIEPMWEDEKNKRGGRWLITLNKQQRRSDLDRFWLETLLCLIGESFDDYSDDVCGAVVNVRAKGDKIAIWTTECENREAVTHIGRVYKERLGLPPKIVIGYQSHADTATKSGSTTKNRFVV

[13] = number of wild-type / mutant comparisons summed (bounds the score): 6
[14] = number of wild-type / mutant comparisons summed (bounds the score): 12

B1: S192Y S192Y (peptide)
chain: IYDLFVWMHYYVSMDALLGGYEIWRDIDFAHEAPAFLPWHR
For B1, the mutation enrichment score [1] was 2.

B2: V988M V988M (peptide)
chain: VGPAQPSHWKVLSSSGSEAAMPSVCFLVPPPNQEAQEAVTR
Work on B2 yielded a mutation enrichment score [1] of -4.6 and a mutation enrichment score ([2]; number of wild-type / mutant comparisons summed (bounds the score): 5) of 1.2.

B3: I1993V I1993V (peptide)
chain: TDLTMSTAACPPSYDRVTKPVVEKHEQEGKDEKAKGK
B3 was tested, and the mutation enrichment score ([3]; paper call: no_effect) was 0, the mutation enrichment score [4] was -1.7 and the mutation enrichment score [5] was -2. It also gave a mutation enrichment score ([6]; number of wild-type / mutant comparisons summed (bounds the score): 12, paper call: no_effect) of -2.4, a mutation enrichment score ([7]; paper call: no_effect) of -6 and a mutation enrichment score ([8]; paper call: no_effect) of -2.2.

B4: R1221C R1221C (peptide)
chain: LVGFSVSAALQVTQTLQWVVCNWTDLENSIVSVERMQDYAW
In the case of B4, the mutation enrichment score [9, 13] is reported as -2.4, the mutation enrichment score [10] is reported as 1 and the mutation enrichment score [11] is reported as 5.4.

B5: R1221H R1221H (peptide)
chain: LVGFSVSAALQVTQTLQWVVHNWTDLENSIVSVERMQDYAW
B5 gave a mutation enrichment score [9, 13] of -4.

B6: V559D V559D (peptide)
chain: IVMILTYKYLQKPMYEVQWKDVEEINGNNYVYIDPTQLPYD
With B6 the mutation enrichment score [1] was 3.9.

B7: Q1338E Q1338E (peptide)
chain: DPVSEVPAVSQHPRTKSSRLEGSSLSSESARHKAVEFSSGA
B7 gave a mutation enrichment score [9, 13] of 1 and a mutation enrichment score ([2]; number of wild-type / mutant comparisons summed (bounds the score): 10) of 3.

B8: S46R S46R (peptide)
chain: NGRSFHKTCFHCMACRKALDRTTVAAHESEIYCKVCYGRRY
In the case of B8, the mutation enrichment score [1] is reported as 2.

B9: R144G R144G (peptide)
chain: KKEEEELVSLKDRIERRRAEGAEQQRIRNEREKERQNRLAE
For B9, the mutation enrichment score [9, 13] was -4.

B10: R144W R144W (peptide)
chain: KKEEEELVSLKDRIERRRAEWAEQQRIRNEREKERQNRLAE
Work on B10 yielded a mutation enrichment score [9, 13] of -4.

B11: T420N T420N (peptide)
chain: YTPPVTSGMSLGMSATTHYHNYLPPPYPGSSQSQSGPFQTS
B11 showed a mutation enrichment score ([3]; paper call: enhanced) of 5.2, a mutation enrichment score ([6]; number of wild-type / mutant comparisons summed (bounds the score): 12, paper call: enhanced) of 11 and a mutation enrichment score ([7]; paper call: enhanced) of 5.5. The mutation enrichment score ([8]; paper call: enhanced) was 6.9.

B12: R323L R323L (peptide)
chain: LSSSALNNEFFTHAAQSWRELLADGEFTHEMQVRIRQEMEK
For B12, the mutation enrichment score [1] was 4.9.

B13: A201S A201S (peptide)
chain: YYVSMDALLGGSEIWRDIDFSHEAPAFLPWHRLFLLRWEQE
Binder B13 has a mutation enrichment score [1] of 5.

B14: R141P R141P (peptide)
chain: ENRKKEEEELVSLKDRIERRPAERAEQQRIRNEREKERQNR
B14 gave a mutation enrichment score [9, 13] of -4.

B15: R141W R141W (peptide)
chain: ENRKKEEEELVSLKDRIERRWAERAEQQRIRNEREKERQNR
B15 gave a mutation enrichment score [9, 13] of -4.

B16: R141Q R141Q (peptide)
chain: ENRKKEEEELVSLKDRIERRQAERAEQQRIRNEREKERQNR
B16 was tested, and the mutation enrichment score [9, 13] was -4.

B17: R141G R141G (peptide)
chain: ENRKKEEEELVSLKDRIERRGAERAEQQRIRNEREKERQNR
B17 showed a mutation enrichment score [9, 14] of -4.

B18: D1238H D1238H (peptide)
chain: WVVRNWTDLENSIVSVERMQHYAWTPKEAPWRLPTCAAQPP
Binder B18 has a mutation enrichment score [1] of 3, a mutation enrichment score [10] of 2.5 and a mutation enrichment score [11] of 1.3.

B19: R140C R140C (peptide)
chain: FENRKKEEEELVSLKDRIERCRAERAEQQRIRNEREKERQN
B19 gave a mutation enrichment score [9, 14] of -1.

B20: C12W C12W (peptide)
chain: MEPGPTAAQRRCSLPPWLPLWLLLWSGLALGA
Work on B20 yielded a mutation enrichment score [9, 13] of 3.

B21: L1256P L1256P (peptide)
chain: PTTIAAVPPYIGPDTPALRTPSEYARPHVMSPTNRNHPFYM
B21 showed a mutation enrichment score [12] of 3 and a mutation enrichment score ([6]; number of wild-type / mutant comparisons summed (bounds the score): 6, paper call: no_effect) of 4.
